Out of some 310,000 compounds screened, about 14,000 (4.5%) showed an effect of 50% or more. Effects have a minus sign here. The list shows a part of the results.
molecular target: human ether-à-go-go-related gene (hERG) potassium channel (human, UniProt Q12809); test: primary screen, population patch clamp on CHO cells stably expressing hERG
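Also: peak tail current of the secondary pulse compared with the same well before compound.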

human ether-à-go-go-related gene (hERG) potassium channel, sequence (Q12809 whole entry, looked up): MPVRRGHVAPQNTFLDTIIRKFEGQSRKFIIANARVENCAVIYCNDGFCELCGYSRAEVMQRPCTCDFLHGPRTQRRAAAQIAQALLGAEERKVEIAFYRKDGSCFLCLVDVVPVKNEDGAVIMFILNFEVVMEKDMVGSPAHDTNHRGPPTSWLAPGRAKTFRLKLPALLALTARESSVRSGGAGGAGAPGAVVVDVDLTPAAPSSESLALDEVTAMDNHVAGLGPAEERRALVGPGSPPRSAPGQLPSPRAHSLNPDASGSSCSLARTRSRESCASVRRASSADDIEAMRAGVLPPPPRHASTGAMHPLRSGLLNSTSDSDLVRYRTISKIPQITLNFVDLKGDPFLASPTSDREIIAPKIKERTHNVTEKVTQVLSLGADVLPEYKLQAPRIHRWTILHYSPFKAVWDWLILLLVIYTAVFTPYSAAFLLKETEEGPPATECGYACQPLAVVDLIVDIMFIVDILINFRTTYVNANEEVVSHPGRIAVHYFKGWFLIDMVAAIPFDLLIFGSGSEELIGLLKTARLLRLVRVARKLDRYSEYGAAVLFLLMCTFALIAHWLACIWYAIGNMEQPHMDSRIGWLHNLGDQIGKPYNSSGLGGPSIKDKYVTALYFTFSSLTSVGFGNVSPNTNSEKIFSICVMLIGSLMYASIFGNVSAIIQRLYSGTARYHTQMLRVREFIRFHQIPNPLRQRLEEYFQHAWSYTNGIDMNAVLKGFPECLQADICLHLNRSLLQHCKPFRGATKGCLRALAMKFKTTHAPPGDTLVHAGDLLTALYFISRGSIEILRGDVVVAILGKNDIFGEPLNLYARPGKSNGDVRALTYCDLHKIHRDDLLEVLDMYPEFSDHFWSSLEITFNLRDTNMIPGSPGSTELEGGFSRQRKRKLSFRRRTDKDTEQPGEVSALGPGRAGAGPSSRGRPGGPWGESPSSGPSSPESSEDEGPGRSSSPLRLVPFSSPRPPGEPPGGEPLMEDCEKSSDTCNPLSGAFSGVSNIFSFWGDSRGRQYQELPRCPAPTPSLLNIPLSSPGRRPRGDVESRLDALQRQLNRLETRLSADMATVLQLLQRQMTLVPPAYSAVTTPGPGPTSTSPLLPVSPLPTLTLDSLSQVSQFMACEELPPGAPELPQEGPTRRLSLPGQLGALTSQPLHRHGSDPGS

| SMILES | hERG current change (%, negative = inhibition) at 10uM [%] |
| --- | --- |
| N#CC1=C(SCC(=O)Nc2ccc(C(=O)O)cc2)NC(=O)CC1c1ccco1 (stereo not shown) | -4.03 |
| CCOC(=O)Cc1csc(SCn2nnc3ccccc3c2=O)n1 | 6.87 |
| COc1cccc(NC(=O)Nc2ccc3c(c2)N(C)C(=O)CS3)c1 | 2.72 |
| FC(F)(F)c1cc(-c2cccs2)n[nH]1 | 6.36 |
| O=C1CN(C(=O)COC(=O)CNC(=O)c2ccc(Cl)cc2)c2ccccc2N1 | -6.75 |
| COC(=O)c1[nH]nc2c1C(=O)N(Cc1ccccc1)C2=O | 10.3 |
| NS(=O)(=O)c1ccc(CCNCC(=O)NCc2ccccc2Cl)cc1.O=C(O)C(=O)O | -5.3 |
| CCOc1cc(/C=N/NC(=O)NN(C)c2ncc(C(F)(F)F)cc2Cl)ccc1O | -54.3 |
| O=C(Nc1ccon1)c1cccc(S(=O)(=O)N2CCCCCC2)c1 | -4.39 |
| CCCOc1cccc(C(=O)Nc2ccc(Br)cc2F)c1 | -0.53 |
| Cn1c(C(=O)N2CCN(c3nc4ccccc4s3)CC2)cc2sccc21 | -8.35 |
| Cc1[nH]c(C)c(S(=O)(=O)NCc2ccc(F)cc2)c1C(=O)N1CCCCC1 | 0.0922 |
| O=C(O)C(Cc1c[nH]c2ccccc12)N1C(=O)C2C3c4ccccc4C(c4ccccc43)C2C1=O (stereo not shown) | 36.8 |
| CC(=O)Nc1ccc(/C=N/Nc2nc3ccccc3[nH]2)cc1 | 17.9 |
| Cn1c(NCc2c(O)ccc3ccccc23)nc2ccccc21 | 3.9 |
| CC1CN(c2nc3ccccn3c(=O)c2C=O)CC(C)O1 (stereo not shown) | 16.2 |
| COc1ccc(N(CC(=O)NCc2ccco2)S(=O)(=O)c2ccc(C)cc2)cc1 | -25.2 |
| CSc1cnn(-c2ccccc2)c(=O)c1SC | 13.9 |
| COc1ccc(C)cc1S(=O)(=O)N(C)CC(=O)NC1CCCCC1 | 8.63 |
| CN(C)NC1CC(=O)N(c2ccccc2)C1=O (stereo not shown) | 15.9 |
| CCN(CC(=O)Nc1c(F)cccc1F)C(=O)CCc1nc2ccccc2c(=O)[nH]1 | 8.25 |
| O=C(NCCc1ccccc1)N1c2ccccc2Sc2ccccc21 | -2.74 |
| CCc1ccccc1NC(=O)CN(C)C(=O)Cn1cc(C(F)(F)F)cc(Cl)c1=O | 7.64 |
| Cn1nnnc1NC(=O)c1ccccc1Cl | 14.8 |
| Cc1nn(C)c(C(=O)Nc2ccn(Cc3c(F)c(F)cc(F)c3F)n2)c1[N+](=O)[O-] | 4.27 |

Source: publication PMC4336329 (PLoS ONE, 2015)
